Test results from PubChem BioAssay AID651820 (National Center for Advancing Translational Sciences (NCATS), 2012).
Where “and” joins values, the source holds several entries; their conditions need not be identical. Equal values may be shown once. Hit rate of the full screen: of about 340,000 compounds, about 12,000 (3.5%) were called active. Inconclusive means that the source gave no clear call. Such entries were picked first, then a sample of the others. The call rests on the fitted dose curve; in most records, active means well fitted inhibition curve with a large enough effect; inconclusive means small, poorly fitted or top-dose-only effect, or another doubt; inactive means no such curve, though single readings can be large or run the other way. Potencies of inconclusive entries are doubtful fits and often do not repeat.

Test: qHTS Assay for Inhibitors of Hepatitis C Virus (HCV)
Conditions: Huh7.5.1 HCVcc-Cre (HCVcc is cell-culture hepatitis C virus) infection, luciferase reporter, 44 h; activity change, negative = inhibition: at 41.8 µM (top of the series) unless noted
In short: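 Compounds are dispensed onto cells plated 4 h earlier at 1,000 per well, with HCVcc-Cre virus (about 0.5 moi) added next. Following 44 h of culture, luminescent signal is measured for 15 sec after 15 min with substrate at room temperature.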
On the % scale 0 is the no-effect control and ±100 the full control effect; potency means the concentration at half of the fitted maximal effect; tags describe the fitted curve by direction and shape.

Compound	Potency	activity change, negative = inhibition
O=[N+]([O-])c1ccc(NNC(=S)Nc2ccc(F)cc2)cc1	inconclusive: 22.4 µM [inhibitor, single point]	–
O=C(CCl)NCCNC(=O)c1cc(OCC(F)(F)F)ccc1OCC(F)(F)F	active: 22.4 µM	–
CCOc1ccccc1NS(=O)(=O)c1cccc2nsnc12	inactive	–
CC1CCCN(CCOCCSc2ccccc2)C1 (centres undefined)	inconclusive: 1.58 µM [inhibitor, partial curve]	–
CC(=O)Nc1ccc2nc(CN3CCN(CC=C(C)C)C(CCO)C3)ccc2c1 (centres undefined)	inactive	–
COC(=O)c1cc(Cl)c(NC(=O)c2cc3ccccc3o2)cc1OC	inactive	–
COc1cc(OC)cc(C(=O)N/N=C/c2ccc(OC)c(COc3ccc(F)cc3)c2)c1	inconclusive: 14.1 µM [inhibitor, partial curve]	–
CCOc1ccccc1CNC(=O)Cn1nc(C)c2c(C)n(-c3ccc(C)cc3)nc2c1=O	active: 2.82 µM	–
Cc1ccc(-c2nnn(CC(=O)N3CCCCC3)n2)o1	inactive	–
CN(CC(=O)NCC(=O)Nc1ccc(F)c(F)c1F)C1CCS(=O)(=O)C1 (centres undefined)	inactive	–
O=C(Nc1ccc(F)cc1F)C1CCCN1S(=O)(=O)c1ccc(-c2ccc(=O)[nH]n2)s1 (centres undefined)	inactive	–
COc1cccc(C2CC(c3ccccc3)=NN2S(=O)(=O)c2ccc(C)cc2)c1OC (centres undefined)	inconclusive: 31.6 µM [inhibitor, single point]	–
CCOC(=O)C1=C(C)n2c(s/c(=C3\C(=O)Nc4ccccc43)c2=O)=NC1c1ccc(OC)cc1 (centres undefined)	inactive	–
Cc1c(C(=O)Nc2cccc(S(=O)(=O)N3CCOCC3)c2)oc2ccc(Br)cc12	inconclusive: 3.55 µM [inhibitor, partial curve]	–
COC(=O)c1cc2nc(-c3ccccc3)cc(C(F)(F)F)n2n1	inconclusive: 11.2 µM [inhibitor, partial curve]	–
COc1ccc2sc3ccccc3c(=O)c2c1	inconclusive: 25.1 µM [inhibitor, partial curve]	–
C[N+]1=C(/C=C/Nc2ccccc2)C(C)(C)c2ccccc21	inconclusive: 11.2 µM [inhibitor, single point]	–
O=C(N/N=C1\CC(c2ccccc2)Oc2ccccc21)c1cccnc1 (centres undefined)	inactive	–
COc1ccc2ccccc2c1/C=N/NC(=O)c1cccc([N+](=O)[O-])c1	inconclusive: 3.16 µM [inhibitor, partial curve]	–
C#CCN(CC=C)C(=O)c1ccc(OC2CCN(S(=O)(=O)N(C)C)CC2)cc1	inconclusive: 31.6 µM [inhibitor, single point]	–
CS(=O)c1ccccc1COC(=O)Nc1ccccc1 (centres undefined)	inactive	–
Cn1c(NC(=O)c2ccco2)c(-c2ccccc2)c(=O)c2ccccc21	inactive	–
CCC(=O)Nc1nnc(S(=O)(=O)N(CC)c2cc(C)cc(C)c2)s1	inconclusive: 5.62 µM [inhibitor, single point]	–

Compound	Potency	activity change, negative = inhibition
COC(=O)C(Cc1ccccc1)NC(=O)CNC(=O)c1sc2ccccc2c1Cl (centres undefined)	inactive	–
Oc1ccc(Br)cc1-c1ccn[nH]1	inconclusive: 3.16 µM [inhibitor, partial curve]	–
O=C(Nc1cccc(S(=O)(=O)N2CCCCC2)c1)C1CC(=O)N(c2ccc3c(c2)OCCO3)C1 (centres undefined)	active: 12.6 µM	–
C/C(=N\NC(=S)NCc1ccccc1)c1ccc2ccccc2c1OC(F)F	active: 12.6 µM	–
CCOC(=O)c1ccc(Nc2cc(C)nc(-c3ccccc3)n2)cc1	inconclusive: 6.31 µM [inhibitor, partial curve]	–
N#Cc1ccc(Oc2nc(Nc3ccc(F)cc3)nc(N3CCCC3)n2)cc1	inactive	–
Clc1ccc(CSc2nnc(-c3cccnc3)n2Cc2ccco2)c(Cl)c1	inconclusive: 3.16 µM [inhibitor, partial curve]	–
Cc1cc(C)c(C)c(OCC(=O)O/N=C(\N)c2ccncc2)c1	inconclusive: 22.4 µM [inhibitor, single point]	–
COC(=O)C1=C(c2cccc(OCc3ccccc3)c2)C[C@@H]2CC[C@H]1N2C(=O)NCCOc1ccc(OC)cc1	inconclusive: 5.01 µM [inhibitor, partial curve]	–
CC(=O)N1CCC2(CC1)C(C#N)=C(N)OC1=C2C(=O)CC(C)(C)C1	inactive	–
O=C(c1ccc([N+](=O)[O-])s1)N1CCN(c2cccc(Cl)c2)CC1	inconclusive: 31.6 µM [inhibitor, single point]	–
O=C1CCCC(=O)N1c1ccc(O)cc1	inactive	–
Cc1ccc2[nH]c(=O)c(CN(CCCN3CCOCC3)C(=O)Nc3ccc(Cl)cc3)cc2c1	inconclusive: 15.8 µM [inhibitor, single point]	–
CCN(CC)C(=O)[C@H]1CC(CC(=O)NC(C)(C)C)C(=O)N2CCc3c([nH]c4ccc(OC)cc34)[C@]12C (some centres undefined)	inconclusive: 3.55 µM [inhibitor, single point]	–
CN(C)c1ccc(C=c2c3ccccc3n3c2cc(-c2ccc(Cl)cc2)[n+]3C)cc1	inconclusive: 12.6 µM [inhibitor, partial curve]	–
COC(=O)c1c(NC(=O)c2ccccc2N(C)S(=O)(=O)c2ccccc2)sc2c1CCCC2	inconclusive: 3.55 µM [inhibitor, single point] and inconclusive: 12.6 µM [inhibitor, partial curve]	–
Cc1nc(C)c(-c2ccc(SCC(=O)Nc3cccc(Cl)c3C)nn2)s1	inconclusive: 11.2 µM [inhibitor, partial curve]	–
C=CCOc1ccc(NC(=O)C(=O)NCCCn2ccnc2)cc1	inconclusive: 2.82 µM [inhibitor, single point]	–
CC(=O)OCCCN(C)CC/C=C1/c2ccccc2CSc2ccccc21	inconclusive: 12.6 µM [inhibitor, single point]	–
CC(=O)Nc1ccc(S(=O)(=O)Nc2cc(C)cn(Cc3ccccc3)c2=O)cc1	inconclusive: 15.8 µM [inhibitor, single point]	–
COc1ccccc1OCCC(=O)O	inactive	–
CCOC(=O)[C@H]1[C@H]2COc3ccc(Br)cc3[C@@H]2N2C(=O)CN(Cc3ccc(Cl)cc3)C(=O)[C@@]12C	inactive	–
Cc1ccc(C(=O)c2c3ccc([N+](=O)[O-])cc3[n+]([O-])n2CCC(N)=O)cc1	active: 12.6 µM	–

Compound	Potency	activity change, negative = inhibition
Cc1ccc(S(=O)(=O)N2CN(Cc3ccco3)c3nc4ccccc4nc32)cc1C	inconclusive: 12.6 µM [inhibitor, partial curve]	–
CCCOc1ccc(N2C(=O)CC(N3CCC(c4nncn4CC)CC3)C2=O)cc1 (centres undefined)	inactive	–
CCOc1ccc(NCc2nnc(SCc3ccccc3Cl)n2-c2ccccc2)cc1	inconclusive: 11.2 µM [inhibitor, single point]	–
CCOc1ccc(N2C(=O)NC(=O)/C(=C\c3cc(OC)c(OC)cc3[N+](=O)[O-])C2=O)cc1	–	inconclusive: -40% [inhibitor]
CC1=C(C(=O)Nc2ccc(C)cc2C)C(c2cccc(Cl)c2)n2nc(C(=O)OC(C)C)nc2N1 (centres undefined)	inactive	–
CC(C)(C)OC(=O)[C@H](Cc1ccccc1)NC(=O)c1nc[nH]c1C(=O)N1CCN(C(=O)OC(C)(C)C)CC1	inconclusive: 31.6 µM [inhibitor, single point]	–
NC(=O)CSC1=Nc2ccccc2C2=NC(CC(=O)NCc3cccs3)C(=O)N12 (centres undefined)	inactive	–
CCCOc1ccc(/C=N/NC(=O)c2nnn(-c3nonc3N)c2-c2cccs2)cc1OC	inconclusive: 2.24 µM [inhibitor, full curve]	–
Cc1ccc(C(=O)N/N=C/c2c(O)ccc3ccccc23)cn1	active: 4.47 µM	–
Cc1csc(SC(C)C(=O)NCc2ccc3c(c2)OCO3)n1 (centres undefined)	inactive	–
Cc1ccc(OCC(=O)Nc2ccc(N3CCN(C(=O)c4ccco4)CC3)cc2)c(C)c1	active: 7.08 µM	–
O=C(Nc1cc(F)cc(F)c1)c1ccc(NCCCN2CCCCCC2)c([N+](=O)[O-])c1	inconclusive: 12.6 µM [inhibitor, single point]	–
CC(NC(=O)Cc1ccc(S(=O)(=O)N2CCOCC2)s1)c1ccc(Cl)c(Cl)c1 (centres undefined)	inconclusive: 17.8 µM [inhibitor, single point]	–
COc1ccc(Cl)cc1N1CCN(CCNC(=O)Nc2ccccc2C)CC1	inconclusive: 8.91 µM [inhibitor, partial curve]	–
O=C(Nc1cc(Cl)ccc1N1CCCC1)C1=COCCO1	inconclusive: 2.82 µM [inhibitor, full curve]	–
COc1ccccc1NC(=S)NC1CC2CCC1C2 (centres undefined)	inactive	–
COc1cc2nc(SCC(=O)NCCc3ccccc3)n(Cc3ccco3)c(=O)c2cc1OC	inconclusive: 8.91 µM [inhibitor, partial curve, poor fit]	–
O=S(=O)(CCN1CCOCC1)c1ccc(Cl)cc1	inactive	–
Cc1ccc(CN2C(=O)C(CC(C)C)Nc3ncnc(N4CCN(c5ccccn5)CC4)c32)cc1 (centres undefined)	inconclusive: 31.6 µM [inhibitor, single point]	–
Cc1ccsc1C(=O)N1CCN(c2ncc(C(F)(F)F)cc2Cl)CC1	inconclusive: 31.6 µM [inhibitor, single point]	–
CC(C)(C)NCc1cc(Cl)ccc1OCc1cccs1	inconclusive: 12.6 µM [inhibitor, single point]	–
Cc1ccccc1NC(=O)c1ccc(OCc2c(C)noc2C)cc1	inconclusive: 31.6 µM [inhibitor, single point]	–
Cc1onc(-c2ccc(Cl)cc2)c1-c1ccnn1S(=O)(=O)c1ccc(Cl)cc1	inconclusive: 10 µM [inhibitor, partial curve]	–
